# Assay results published in PubChem BioAssay AID1345083 (National Center for Advancing Translational Sciences (NCATS), 2018).
# Where “and” joins values, the source holds several entries; their conditions need not be identical. Identical values can stand only once. In all, about 94,000 compounds went through this assay and about 6,200 (6.6%) were called active. The shares of active, inactive and inconclusive entries below differ from those in the screen. Calls come from the whole dose curve; as a rule, active = well fitted inhibition curve with a large enough effect; inconclusive = small, poorly fitted or top-dose-only effect; inactive = flat fitted curve, though single readings scatter. Where the call is inconclusive, the potency comes from a doubtful curve fit.
# Test: Cytotoxic Profiling in HEK 293 Cell Line of Diverse Libraries Using Quantitative High-Throughput Screening; note: nearly all actives have a fitted effect of over 60% in size
# Settings: HEK 293 viability, ATP luminescence (CellTiter-Glo), 48-72 h; activity change, negative = cytotoxicity: at 115 µM (top of the series) unless noted; series mostly up to 115 µM
# Text: Cell-based phenotypic screening is a commonly used approach to discover biological pathways, novel drug targets, chemical probes and high-quality hit-to-lead molecules. Many hits identified from high-throughput screening campaign are ruled out through a series of follow-up potency, selectivity/specificity, and cytotoxicity assays. Prioritization of molecules with little or no cytotoxicity for a more in-depth downstream evaluation influence the future direction of projects, so cytotoxicity profiling of the screening libraries at early stage is essential for increasing the likelihood of candidate success. In this study, we analyzed results from a cell-based cytotoxicity screening campaign, comprising nearly 10,000 compounds in NCATS annotated libraries, and over 100,000 compounds in a diversity library, evaluated in four normal cell lines (HEK 293, NIH 3T3, CRL-7250 and HaCat) and a cancer cell line (KB 3-1, a HeLa subline) with overall screening outcomes, hit rates, pan-activity and selectivity. For the annotated library, we also examined the primary targets and mechanistic pathways regularly associated with cell death. To our knowledge, this is the first study to use high-throughput screening to profile large libraries for cytotoxicity assessment in both normal and cancer cell lines. In summary, the results generated here constitutes a valuable resource for the scientific community and provides insight on identifying cytotoxic compounds with particular mechanisms of action, and prioritizing compounds with suitable cytotoxicity profile for further evaluation.
# HEK 293 cells were seeded into white 1536-well plates using a Multidrop Combi peristaltic dispenser (ThermoFisher, Waltham, MA) at a density of 250 cells/well in 5 uL of medium respectively. A pintool (Kalypsys) was used to transfer 23 nL of compound solution to the 1536-well assay plates. After 48 or 72 hr incubation at 37 degree Celsius, 5% CO2 and 95% humidity, 2.5 uL of CellTiter-Glo (Promega) was dispensed into each well using a dispenser (Aspect Automation, St. Paul, MN) with solenoid valves (Lee Valves, Westbrook CT). Plates were left at room temperature for 10 min before imaging the ATP-coupled luminescence using a ViewLux microplate imager (PerkinElmer, Waltham, MA).
# % is set by controls: 0 for no effect and ±100 for the full control effect; potency is the fitted concentration of half-maximal effect; tags give direction and shape of the fitted curve.
SMILES,Potency,"activity change, negative = cytotoxicity",outcome
CCC(CC)C(=O)NC[C@H]1O[C@H](Cc2cc(-c3ccc(F)cc3)on2)CC[C@@H]1O,"inconclusive: 79.4 µM [inhibitor, partial curve]",–,–
CC(C)c1cc(NCc2csc(-c3ncccn3)n2)n2nccc2n1,"inconclusive: 89.1 µM [inhibitor, single point]",–,–
CC(C)(O)CCc1cccc(C(=O)NCCNc2cccnc2)c1,active: 31.6 µM,–,–
Cc1cccc(-c2nc3ccc(C(=O)NCc4cccc(C(F)(F)F)c4)cc3o2)n1,"inconclusive: 31.6 µM [inhibitor, full curve, poor fit]",–,–
CC1=C[C@@H](CNCc2cccnc2)[C@H](C(C)C)C[C@H]1Cc1nnc(-c2ccc(N(C)C)cc2)o1,active: 17.8 µM,–,–
O=C(c1ccc(F)cc1)N1CCC(n2cc(-c3nc(-c4ccccc4)no3)nn2)CC1,"inconclusive: 79.4 µM [inhibitor, partial curve, poor fit]",–,–
O=C(NCc1cccc(C(F)(F)F)c1)c1ccc2nnc(-c3cc(C(F)(F)F)cc(C(F)(F)F)c3)n2c1,active: 14.1 µM,–,–
Cc1ccc(CN2CCC3(CC2)OC(=O)N(Cc2ccc(O)cc2)C3(C)c2ccccc2)o1 (stereo unspecified),"inconclusive: 50.1 µM [inhibitor, partial curve, poor fit]",–,–
C1=C(c2cc(-c3ccncc3)cn3cncc23)CCOC1,active: 100 µM,–,–
O=C(NCCCc1ccccc1)c1n[nH]c2c1CN(C(=O)c1ccccc1F)CC2,"inconclusive: 56.2 µM [inhibitor, partial curve, poor fit]",–,–
O=C(c1ccccc1)N1CCC2(CC1)N=C(c1ccc(Cl)cc1)NO2,"inconclusive: 89.1 µM [inhibitor, single point]",–,–
O=C(c1ccc2c(c1)CC(=O)N2Cc1ccccc1)N1CCN(C2CCCCC2)CC1,"inconclusive: 50.1 µM [inhibitor, partial curve, poor fit]",–,–
Cc1ccc(Nc2ccnc(N3CCC(C(=O)N4CCCC4C)CC3)n2)cc1 (stereo unspecified),"inconclusive: 44.7 µM [inhibitor, partial curve, poor fit]",–,–
Cc1nn(-c2ccccc2)c2c1C(C)N(C1CCCN(C(=O)Nc3ccccc3)C1)C2=O (stereo unspecified),"inconclusive: 50.1 µM [inhibitor, partial curve, poor fit]",–,–
Cc1nn(C(=O)CCCC(=O)N2CCC(Cc3nncn3-c3ccccc3)CC2)c2ccccc12,–,inactive: -9.96%,–
CC(C)(C)C(=O)N[C@H]1CO[C@H]2[C@@H]1OC[C@@H]2Nc1nccc(-c2cccc(F)c2)n1,"inconclusive: 70.8 µM [inhibitor, partial curve, poor fit]",–,–
c1cncc(O[C@H]2COCCN(C3CCC3)C2)c1,"inconclusive: 126 µM [inhibitor, partial curve]",–,–
COc1ccc(CNC(=O)C(C)[C@@H]2CCc3c(C)cc(OCCN4CCOCC4)c(C)c3C2)cc1 (stereo partly specified),"inconclusive: 56.2 µM [inhibitor, partial curve, poor fit]",–,–
O=C(NCc1ccc(Cl)cc1)C1CCN(c2nccc(Nc3ccccc3F)n2)CC1,active: 17.8 µM,–,–
O=C(Nc1ccc(F)c(Cl)c1)C1CCc2sc(C(=O)N3CCOCC3)cc2C1 (stereo unspecified),active: 28.2 µM,–,–
CC1CCC2(CC1)NC(=O)N(CC(=O)Nc1cccc(Cl)c1)C2=O (stereo unspecified),"inconclusive: 10 µM [inhibitor, full curve]",–,–
COc1ccc(-c2cc(C(=O)NC3CCCCC3)c3cnn(C)c3n2)cc1,"inconclusive: 44.7 µM [inhibitor, partial curve, poor fit]",–,–

SMILES,Potency,"activity change, negative = cytotoxicity",outcome
CC(=O)N1CCC(N2C[C@H](NC(=O)c3ccoc3C)[C@@H](C3CC3)C2)CC1,–,inactive: 4.35%,–
Cc1nn(-c2ccccc2)c2c1C(C1CC1)N(C1CN(C(=O)c3ccc4c(c3)OCO4)C1)C2=O (stereo unspecified),"inconclusive: 25.1 µM [inhibitor, full curve, poor fit]",–,–
CC(=O)N1Cc2ccccc2CC2(CCCN(CCc3ccc(C)cc3)C2)C1 (stereo unspecified),"inconclusive: 89.1 µM [inhibitor, single point]",–,–
CN(C)Cc1nnc(C2CCCN(C(=O)c3cccc(N(C)C)c3)C2)n1C (stereo unspecified),–,inactive: 3.89%,–
COc1ccc(CCNC(=O)c2cc3n(n2)CC(c2ccc(Cl)cc2)OC3)cc1OC (stereo unspecified),active: 44.7 µM,–,–
COc1ccc(CCC(=O)N2CCC3(CCC3OC)CC2)cc1 (stereo unspecified),–,inactive: -16.8%,–
COc1ccc(CNC(=O)CC2CCCCN(C)C2=O)c(OC)c1 (stereo unspecified),–,inactive: 2.33%,–
Cc1ccc(-c2cc3c(=O)n(CCNC(=O)c4ccccc4F)ccn3n2)c(C)c1,"inconclusive: 39.8 µM [inhibitor, full curve]",–,–
O=C(NC1CC1)C1CCCN(c2nccc(Nc3ccccc3F)n2)C1 (stereo unspecified),"inconclusive: 70.8 µM [inhibitor, partial curve, poor fit]",–,–
CC(C)CCNC(=O)c1cc(-c2ccncc2)cn1C,"inconclusive: 28.2 µM [inhibitor, partial curve, poor fit]",–,–
CCC(=O)NC1CCN(c2cnn(CC)c(=O)c2)CC1,–,–,inactive
CC(C)Cn1nc2n(c1=O)CCN(S(=O)(=O)c1cc(F)ccc1F)CC2,–,inactive: -2.57%,–
O=C(C1CCCC1)N1Cc2ccccc2CC2(CCCN(CC3CCNC3)C2)C1 (stereo unspecified),"inconclusive: 50.1 µM [inhibitor, partial curve, poor fit]",–,–
N#Cc1ccc(CN2C[C@@H](CO)[C@H](NC(=O)c3ccccc3)C2)cc1,"inconclusive: 89.1 µM [inhibitor, single point]",–,–
CCn1cc(S(=O)(=O)N2CC3(CCCCC3)CC2COc2ccc(OC)cc2)cn1 (stereo unspecified),active: 31.6 µM,–,–
COc1ccc(-n2c(=O)c3c(n2Cc2ccccc2)CN(C(=O)c2cccc(O)c2)CC3)cc1,–,inactive: -4.02%,–
Cc1ccc(CN2CCC(CNC(=O)NC(C)C)C2)cc1C (stereo unspecified),"inconclusive: 56.2 µM [inhibitor, partial curve, poor fit]",–,–
COc1cc(CN2C[C@@H](CO)[C@H](C(=O)NC3CC3)C2)ccc1F,–,–,inactive
Cc1nc(N2CCC(C(=O)NC3CCc4ccccc43)CC2)cc(C(F)(F)F)n1 (stereo unspecified),"inconclusive: 50.1 µM [inhibitor, partial curve, poor fit]",–,–
COc1cccc(N2C(=O)NC(=NC3CCCCC3)C23CCN(Cc2ccsc2)CC3)c1,–,inactive: -11.2%,–
O=C(c1ccccc1F)N1CCCN(CCn2nc3n(c2=O)CCCC3)CC1,–,inactive: 3.12%,–
O=C(N[C@H]1C[C@@H](CO)N(Cc2ccco2)C1)c1cccnc1,"inconclusive: 89.1 µM [inhibitor, single point]",–,–

SMILES,Potency,"activity change, negative = cytotoxicity",outcome
O=C1CCCCC(CNC(=O)C2CC2)N1 (stereo unspecified),–,–,inactive
O=C(Nc1ccc(Cl)cc1)c1nc2c(o1)CCN(Cc1cccc(F)c1F)CC2,active: 31.6 µM,–,–
CCOc1ccc(-c2ccnc(N3CCNC(C)C3)n2)cc1C(=O)O (stereo unspecified),–,inactive: -0.326%,–
CCc1ncc(C(=O)Nc2nn(CC(F)(F)F)c3cc(OC(C)C)ccc23)cn1,"inconclusive: 44.7 µM [inhibitor, partial curve, poor fit]",–,–
O=C(Nc1cccc(-n2cccn2)c1)C1CCCN1C(=O)c1ccoc1 (stereo unspecified),–,inactive: -5.83%,–
COc1ccc(-n2nc(C)c([C@@H]3C=C[C@@H](NC(=O)Nc4ccccc4)C3)c2C)cc1,active: 50.1 µM,–,–
O=S(=O)(NCC1CN(CC2CC2)CC12CCCCC2)c1cccs1 (stereo unspecified),"inconclusive: 79.4 µM [inhibitor, partial curve, poor fit]",–,–
COc1ccccc1Cn1c(=O)c(C(=O)N2CCCCC2)nc2cccnc21,"inconclusive: 89.1 µM [inhibitor, single point]",–,–
CNC(=O)c1cc(C2CC2)nc2onc(C3CCCN3C(=O)NC(C)c3ccccc3)c12 (stereo unspecified),–,inactive: -2.61%,–
O=C1c2c(nc(CNCC3CCCO3)n2Cc2ccccc2)NCCN1CCOc1ccccc1 (stereo unspecified),"inconclusive: 79.4 µM [inhibitor, partial curve, poor fit]",–,–
COc1cccc(-c2cccc(C(=O)N3CCCC3C(=O)NCc3ccccc3F)c2)c1 (stereo unspecified),"inconclusive: 79.4 µM [inhibitor, partial curve]",–,–
Cc1ccc(F)c(NC(=O)C2CN(S(=O)(=O)C3CC3)CC23CCCCC3)c1 (stereo unspecified),"inconclusive: 50.1 µM [inhibitor, partial curve, poor fit]",–,–
O=C(c1cccs1)N1CCC(N2C(=O)[C@H]3CN(Cc4ccccc4)C[C@H]3C2=O)CC1,"inconclusive: 89.1 µM [inhibitor, single point]",–,–
O=C(c1ccncc1)N1CCCN(c2ccnc3ccnn23)CC1,–,inactive: -19.7% [at 172 µM],–
Cc1ccccc1C(=O)NC1CCN(Cc2cccc(-c3cccs3)c2)CC1,"inconclusive: 50.1 µM [inhibitor, partial curve, poor fit] and inconclusive: 22.4 µM [inhibitor, full curve, poor fit]",–,–
CCN1c2cc(C(=O)Nc3ccc(SC)cc3)ccc2C(=O)N2CCCCC21 (stereo unspecified),"inconclusive: 39.8 µM [inhibitor, full curve, poor fit]",–,–
Cc1ccc(CNC(=O)C2(CCO)CC23CCOCC3)o1 (stereo unspecified),–,–,inactive
CC(C)COC(=O)N1C[C@@H](CO)[C@@H]2Oc3c(F)cccc3[C@@H]21,"inconclusive: 56.2 µM [inhibitor, partial curve, poor fit]",–,–
CC(C)CCN1CC2(CCCN(S(=O)(=O)c3cnn(C)c3)C2)CCC1=O (stereo unspecified),–,inactive: -1.49%,–
COc1ccc(OCc2cc(C(=O)NC(C)CCO)n[nH]2)c(Cl)c1 (stereo unspecified),–,inactive: -12.9%,–
Cn1nccc1CN1CCC2(CC(c3cccc(C(F)(F)F)c3)=NO2)C1 (stereo unspecified),"inconclusive: 50.1 µM [inhibitor, partial curve, poor fit]",–,–
Cc1cn2nc(C(=O)Nc3ccc(C(=O)NCCc4cccs4)cc3)cc2c(=O)[nH]1,–,inactive: 16.4%,–
